Our source for the GI50 and TGI values is PubChem BioAssay (NCI).

Values joined by “and” are separate entries in the source; they are usually repeats but may differ in a detail not shown here. Equal values may be shown once.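 Protocol summary: plate cells (96-well), add compound at 5 concentrations, incubate 48 h, interpolate endpoints linearly. The concentration for 50% growth inhibition is given as GI50. TGI denotes the concentration required for complete inhibition of growth.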 Peptide text beside a SMILES is read from it.

This test deals with NCI-H322M lung. The test can be described thus: NCI-60 cell line screen, 48 h.
As for `CC(=O)Oc1c(C(=O)[O-])cc(C(C)C)cc1C(C)C.CC(=O)Oc1c(C(=O)[O-])cc(C(C)C)cc1C(C)C.CC(=O)Oc1c(C(=O)[O-])cc(C(C)C)cc1C(C)C.CC(=O)Oc1c(C(=O)[O-])cc(C(C)C)cc1C(C)C.[Cu+2].[Cu+2]`, the GI50 was 19.9 µM and the TGI was determined as 39.9 µM. In turn, `O=C1c2ccccc2C(=O)c2c(NC3CCCCC3)ccc(Nc3ccc(S(=O)(=O)O)cc3)c21` had a TGI of more than 100 µM. On the same count and under the same terms, the figure for `CC(C)(C)OC(=O)N(CCCCNC(=O)C(F)(F)F)CCCNC(=O)C(F)(F)F` is more than 100 µM.

`COC1(OC)c2occc2C(=N)c2ccc(=O)oc21` had a TGI of more than 100 µM. Still for that read-out and setting: the figure for `O=C1C2C3C=CC(C2C(=O)N1CO)C1C2C(=O)N(CO)C(=O)C2C31` (stereo not drawn) is more than 100 µM. Still for that read-out and setting: in the case of `CC(N)(CC(O)(C(F)(F)Cl)C(F)(F)Cl)C(=O)O` (stereo not drawn) it was more than 10 µM. For `CCc1ccc(Nc2cc(C)c3ccc(O)cc3n2)cc1`, the GI50 was 13.6 µM and the TGI was 27.5 µM. For `O=C(CCCC(=O)Nc1ccc(Cl)cc1Cl)CC(=O)c1ccc2ccccc2c1`, the TGI was more than 100 µM. The same measure, in the same setting: in the case of `Cc1cc(N(CCC#N)CCC#N)ccc1/C(N=Nc1ccccc1)=N\NC(=O)c1cc(Cl)ccc1O` it was more than 100 µM. On the same count and under the same terms, the figure for `COc1ccc2nc(NC(=O)C(=O)CC(=O)c3ccc([N+](=O)[O-])cc3)sc2c1` is more than 100 µM. The same measure, in the same setting: the figure for `COc1ccc2nc3cc(Cl)ccc3c(NC(C)CCCN(CCCl)CCCl)c2c1` (stereo not drawn) is 5.8 µM; for `CCOC(=O)c1c2c(n(-c3ccc(C)cc3)c1C)-c1ccccc1C(=O)C2(C(=O)OCC)C(=O)OCC` it is more than 100 µM; for `Cc1cc(O)c(/C=N/C(N)=S)c(=O)o1` it is more than 100 µM. For `CC(C)C[C@@H]1NC(=O)[C@@H]2CCCN2C(=O)[C@@H]2CCCN2C(=O)[C@H](CC(C)C)NC(=O)[C@H](CO)NC(=O)[C@H](CCCCN)NC(=O)[C@H]([C@H](C)O)NC(=O)[C@@H]2CSSC[C@@H](NC1=O)C(=O)N[C@@H](Cc1ccccc1)C(=O)N1CCC[C@H]1C(=O)N[C@@H](CC(=O)O)C(=O)NCC(=O)N[C@@H](CCCN=C(N)N)C(=O)N2` (HELM PEPTIDE1{C.[C[C@H](O)[C@H](N[*:1])C(=O)[*:2]].K.S.L.P.P.L.[dC].F.P.D.G.R}$PEPTIDE1,PEPTIDE1,1:R3-9:R3|PEPTIDE1,PEPTIDE1,1:R1-14:R2$$$V2.0), the GI50 was more than 50 µM and the TGI is more than 50 µM.

Take `C(=Nc1nc(SCc2ccccc2)nc2[nH]ncc12)c1cccs1`: the GI50 was 64.2 µM and the TGI was more than 100 µM. `CN1C(=O)CC(=O)N1/C(=C/c1ccccc1)c1ccccc1` yielded a TGI of more than 100 µM. Still for that read-out and setting: the figure for `CC1=NN(c2nc(N)nc(C(C)Cl)n2)C(C)(C)C1` (stereo not drawn) is more than 100 µM; for `O=c1cc(Nc2cccc(O)c2)[nH]c(=O)[nH]1` it is more than 100 µM; for `NC(N)=NCCCC(NCc1c2ccccc2nc2ccccc12)C(=O)O` (stereo not drawn) it is more than 100 µM.

For `O=C(c1ccccc1)[C@H]1Nc2ccc(Cl)cc2[C@H]2CCC[C@@H]12`, the TGI is more than 100 µM. With `Nc1nccc(-c2c(-c3ccc(F)cc3)nn3cc(C(F)(F)F)ccc23)n1`, the GI50 was more than 25 µM and the TGI was more than 25 µM.

On to `c1cc(-c2ccc(-c3ccsc3)s2)cs1`, for which the TGI is more than 100 µM. Consider `N#Cc1ccccc1OCCOc1ccccc1C#N`, for which the TGI is more than 100 µM. On the same count and under the same terms, in the case of `COc1ccc(/C(Nc2ccccc2)=C(\CCl)c2ccccc2)cc1OC` it was more than 100 µM. As for `CCCCCCCCCCCC[C@@H](O)[C@H]1CC[C@H]([C@H](O)CC[C@H](O)[C@@H]2CC[C@@H](CCCCCCCC3=C[C@H](C)OC3=O)O2)O1`, the GI50 is 9.01 µM and the TGI was more than 50 µM.

The compound `CCOC(=O)c1c(NC(=O)c2ccccc2)c(C#N)c2n1CCCCC2` showed a TGI of more than 100 µM. On the same count and under the same terms, the figure for `O=C1CC(O)c2cscc21` (stereo not drawn) is more than 100 µM.

Regarding `COc1cc2nnc3c4cccnc4[nH]c3c2cc1OC`, the GI50 is 23.4 µM and 20.6 µM; the TGI is 50 µM and 59.2 µM. `O=C(O)CN(CCN(CC(=O)O)CC(=O)O)CC(=O)O.[Mn+2]`: the GI50 was more than 100 µM and the TGI was more than 100 µM. As to `CN=c1sc2c(n1C)C(=O)c1ccccc1C2=O`, the TGI amounted to 5.22 µM. `O=C1NC(=O)C2C(=O)NC(=O)C1C2Cc1ccco1` (stereo not drawn) returned a TGI of more than 100 µM.

As to `COC(CN(C)C(=S)Nc1cccc2ccccc12)OC`, the TGI was more than 10 µM.

As to `O=C1C(Cl)N(c2ccccc2Cl)C1c1c[nH]c2ccccc12` (stereo not drawn), the TGI was more than 100 µM. On the same count and under the same terms, the figure for `CCOC(=O)c1cn(CC)c(=O)n2c1nc1ccccc12` is more than 100 µM; for `O=c1c(-c2ccccc2)nnc2n(Cc3ccccc3)c3ccccc3n12` it is more than 100 µM. With `Cc1cc(Cl)nc(N(CCNc2ccnc3cc(Cl)ccc23)Cc2ccco2)n1`, the GI50 was 2 µM and the TGI amounted to 4.75 µM.

As for `CSC(=O)/C=C1\SS/C(=C\C(=O)SC)S1`, the TGI was 26.3 µM. Still for that read-out and setting: the figure for `O=C(c1ccc(Cl)cc1)N(C(=O)N1CCCCC1)c1ccccc1` is more than 100 µM. For `ClCCOCCn1cnc2c(Cl)nc(Cl)nc21`, the GI50 was 13.2 µM and the TGI worked out at 26.3 µM. Regarding `CC(=O)Nc1ccc(C2CC(c3ccc([N+](=O)[O-])cc3)=Nc3ccccc3S2=O)cc1` (stereo not drawn), the TGI is more than 100 µM. As for `COc1ccc(-c2nc3ccc(Cc4ccc5nc(-c6ccc(OC)cc6)[nH]c5c4)cc3[nH]2)cc1`, the GI50 is 0.481 µM and the TGI was determined as 2.85 µM. Turning to `COc1ccc(/C=C2\CCC/C(=C\c3ccc(OC)c(OC)c3)C2=O)cc1OC`, the GI50 was 2.88 µM and the TGI was more than 32.5 µM. `COc1ccc(-c2oc3cc(-c4cc5oc(-c6ccc(OC)cc6)c(-c6ccc(OC)cc6)c5cc4OC)c(OC)cc3c2-c2ccc(OC)cc2)cc1` returned a TGI of more than 100 µM.

As for `Cn1c(=O)c2nc3sc4c(n3c2n(C)c1=O)C(=O)c1ccccc1C4=O`, the TGI was more than 66.8 µM.

`O=c1[nH]c(N/N=C\C(O)C(O)C(O)C(O)CO)nc2ccccc12` (stereo not drawn) gave a TGI of more than 100 µM. As for `CCOC(=O)C1(C)CCC(C(C(=O)O)C(=O)O)CC1=O` (stereo not drawn), the TGI was more than 100 µM.

Regarding `CCCCCCCCCCCCCCNC(=O)Nc1ccc(Cl)c(Cl)c1`, the GI50 is 26.9 µM and the TGI was more than 100 µM.

In turn, `N#Cc1sc2nc3ccccc3n2c1N` displayed a TGI of more than 100 µM. Same read-out and setting: the figure for `[B]C(=O)NC(CC(C)C)C(=O)NCC(=O)NC1c2ccsc2C(=O)C1O` (stereo not drawn) (tested in a mixture with another compound) is more than 100 µM; for `COC(=O)[C@@]12OC[C@]34C([C@@H](O)C1O)[C@@]1(C)CC(=O)C(OC(=O)CC(C)C(F)(F)F)=C(C)C1C[C@H]3OC(=O)[C@H](O)[C@H]42` (stereo partly drawn) it is more than 62.5 µM; for `CC(=O)NC1C(OCC(=O)NCCNc2ccc([N+](=O)[O-])c3[nH]c4ccccc4c(=O)c23)C(O)C(CO)OC1(C)OCc1ccccc1` (stereo not drawn) it is more than 100 µM. With `CCCCCC(=O)O[C@]1(C(C)=O)CCC2C3CCC4=CC(=O)CC[C@]4(C)C3CC[C@@]21C` (stereo partly drawn), the GI50 is 5.06 µM and the TGI was 21.9 µM.

Compound `CC(=O)c1ccc(Nc2c3c(nc4ccccc24)CCCC3)cc1` gave a TGI of more than 100 µM. Consider `CC(=O)[CH-]C(=O)c1ccccc1.[C-]#[O+].[C-]#[O+].[Ir]`, for which the GI50 is more than 100 µM and the TGI was more than 100 µM. Turning to `COc1ccc(OC)c2sc(N3C(=O)/C(=C/c4cccc(Oc5ccccc5)c4)N=C3c3ccccc3)nc12`, the TGI was more than 100 µM. In the case of `C[C@H]1CC[C@@]2(OC1)O[C@H]1C[C@H]3[C@@H]4CC[C@@H]5C[C@@H](OC6OC(CO)C(O)C(O)C6OC6OC(CO)C(O)C(O)C6O)CC[C@]5(C)[C@H]4CC[C@]3(C)[C@H]1[C@@H]2C` (stereo partly drawn), the TGI amounted to 3.6 µM. On the same count and under the same terms, in the case of `CCO/C=C1\SC(=S)N(c2ccc(OCC)cc2)C1=O` it was more than 100 µM. Still for that read-out and setting: the figure for `COC(=O)/C=C/c1ccc(OP(=O)(O)O)c(OC)c1` is more than 100 µM. Turning to `CC(=O)Oc1ccc(C2=Cc3ccc(OC(C)=O)cc3OC2C)cc1` (stereo not drawn), the GI50 was 4.56 µM and the TGI was 24.3 µM. In the case of `C[C@H](C(=O)O)C(=O)NC(=O)N(Cc1ccccc1)N=O`, the TGI is more than 100 µM.

Turning to `CC(C)[C@@H]1CC[C@]2(CO2)[C@@H]2C(=O)OCC(C(=O)O)=C[C@H]21`, the GI50 is 0.63 µM and the TGI was 23 µM. With `Nc1nc(=S)c2c(ncn2CCO)[nH]1`, the TGI was more than 100 µM.

In turn, `C=CCON(C(=O)OC(C)(C)C)C(C)(C)C` gave a TGI of more than 100 µM. Same read-out and setting: the figure for `CC1NOC(=O)C1N=Nc1ccc(Cl)cc1Cl` (stereo not drawn) is 66.4 µM. In the case of `COCCN(CCOC)c1nc(-c2ccccc2)nc2ccccc12`, the GI50 was 22.4 µM and the TGI amounted to 66.9 µM. With `Cc1c(C)c(S(=O)(=O)N(CCCCN)OCCCN)c(C)c2c1OC(C)(C)CC2`, the TGI stood at 30.9 µM. Same read-out and setting: the figure for `OC(c1ccccc1Br)(c1ccccc1Br)C(F)(F)F` is more than 100 µM. On to `CCCCCC/C=C\CCCCCCCCC(=O)c1cccc(OC)c1OC`, for which the TGI is more than 100 µM. Regarding `COc1ccc(-c2cc(/C=C/C(=O)c3ccc(N)cc3)[nH]n2)cc1OC`, the GI50 was 4.34 µM and the TGI turned out to be 16.5 µM. For `CC(C)C(Cl)CCC(C)(Cl)C(=O)CBr` (stereo not drawn), the TGI was more than 100 µM.

Take `CC(=O)OC1COC(N2CCc3cc([N+](=O)[O-])ccc32)C(OC(C)=O)C1OC(C)=O` (stereo not drawn): the TGI was more than 100 µM. On the same count and under the same terms, the figure for `COc1ccc(CCCCNCc2cccc(CNCCCCc3ccc(OC)cc3)c2)cc1` is 3.5 µM; for `CC(SC(=S)N1CCOCC1)C(=O)Nc1nnc(-c2ccc(Cl)cc2)o1` (stereo not drawn) it is more than 100 µM. With `C=CCN(CC=C)C(=O)c1cc(C)nc2c1c(=O)n(-c1ccccc1)c(=O)n2CCCN1CCN(c2ccccc2OC)CC1`, the GI50 is more than 50 µM and the TGI was more than 50 µM. Consider `O=C(NCCC1CNc2ccccc21)OCc1ccccc1` (stereo not drawn), for which the TGI was more than 100 µM.

`Fc1ccc(NC(c2ccc(F)cc2)C2CCN(CCCCc3ccccc3)CC2)cc1` (stereo not drawn): the GI50 was 1.83 µM and the TGI stood at 4.51 µM. In the case of `Cc1[nH]n(-c2nc3c(c(=O)[nH]2)CCCC3)c(=O)c1CCO`, the TGI was more than 100 µM. On the same count and under the same terms, the figure for `COC(=O)C1CCC(=O)N1CN(C(C)=O)c1cccc(O)c1` (stereo not drawn) is more than 100 µM; for `c1ccc(C(c2ccccc2)c2ccccn2)cc1` it is more than 100 µM.

As for `O=c1[nH]c2[nH]c(=S)[nH]c(=S)c2[nH]1`, the TGI was more than 100 µM. Still for that read-out and setting: the figure for `Oc1c(N2CCCCC2)cc(-c2cc(N3CCCCC3)c(O)c3ccccc23)c2ccccc12` is 34.2 µM.

`COc1cc2nc(Cl)nc(NS(=O)(=O)c3cc4ccccc4s3)c2cc1OC` showed a TGI of 54.1 µM.
